From the supplement of paper PMC9174493 come the findings set out here.

The subject of assay [1] is A549-Dual. Kind of assay: NF-kB reporter (SEAP) activity, viability-corrected, relative to vehicle (fold change vs vehicle); higher = more activation of STING-IRF / NF-kB immune response reporter. Conditions: 10 µM.
The test system of assay [2] is A549-Dual. Kind of assay: ISRE reporter (Lucia luciferase) activity, viability-corrected, relative to vehicle (fold change vs vehicle); higher = more activation of STING-IRF / NF-kB immune response reporter. Particulars: 10 µM.

Some of the results follow. Single values of this set are uncertain. Values with irradiation are relative to irradiated vehicle.
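Throughout, for NF-kB reporter (SEAP) activity, viability-corrected, relative to vehicle: viability correction based on the alamar blue assay, with concentrations leaving 10% survival or less dropped.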

In the case of `CCOc1ccccc1OC(c1ccccc1)C1CNCCO1.CS(=O)(=O)O` (configuration not stated) [Reboxetine mesylate], the NF-kB reporter is 0.707 in the assay with A549-Dual [1] (irradiation: 8 Gy/4 fr) and 1.09 in the assay on A549-Dual [1] (irradiation: none). Besides, the ISRE reporter stood at 0.93 in the assay on A549-Dual [2] (irradiation: 8 Gy/4 fr) and 1.18 in the assay on A549-Dual [2] (irradiation: none).

Take `CCOC(=O)C(C)(C)Oc1ccc(Cl)cc1` [Clofibrate]: the figures for the NF-kB reporter in the assay on A549-Dual [1] (irradiation: 8 Gy/4 fr) and in the assay with A549-Dual [1] (irradiation: none) were 0.784 and 0.748, respectively. In addition, the values for the ISRE reporter with A549-Dual [2] (irradiation: 8 Gy/4 fr) and in the assay with A549-Dual [2] (irradiation: none) were 0.714 and 0.694, respectively.

With `C=C1C(CO)C(O)CC1n1cnc2c(=O)nc(N)[nH]c21` (configuration not stated) [Entecavir], the NF-kB reporter worked out at 0.728 in the assay with A549-Dual [1] (irradiation: 8 Gy/4 fr) and 0.865 in the assay on A549-Dual [1] (irradiation: none). Also, the ISRE reporter stood at 0.568 in the assay with A549-Dual [2] (irradiation: 8 Gy/4 fr) and 0.603 with A549-Dual [2] (irradiation: none).

For `Cl.O=C(Nc1ccccc1)OCC(CN1CCCCC1)OC(=O)Nc1ccccc1` (configuration not stated) [Diperodon HCl], the NF-kB reporter came out at 0.976 in the assay with A549-Dual [1] (irradiation: 8 Gy/4 fr) and 0.746 in the assay with A549-Dual [1] (irradiation: none). The ISRE reporter with A549-Dual [2] (irradiation: 8 Gy/4 fr) amounted to 0.939; with A549-Dual [2] (irradiation: none), 0.725.

Regarding `CO/N=C(\C(=O)N[C@@H]1C(=O)N2C(C(=O)O)=C(Cn3ccc(=N)n3CCO)CS[C@H]12)c1csc(N)n1.O=S(=O)(O)O` [Cefoselis Sulfate], the NF-kB reporter in the assay with A549-Dual [1] (irradiation: 8 Gy/4 fr) worked out at 0.821; with A549-Dual [1] (irradiation: none), 0.923. Besides, the ISRE reporter in the assay on A549-Dual [2] (irradiation: 8 Gy/4 fr) was 0.797; with A549-Dual [2] (irradiation: none), 0.822.

As for `O=C1NS(=O)(=O)c2ccccc21` [Saccharin], the values for the NF-kB reporter in the assay with A549-Dual [1] (irradiation: 8 Gy/4 fr) and with A549-Dual [1] (irradiation: none) were 1.02 and 0.706, respectively. Moreover, the ISRE reporter with A549-Dual [2] (irradiation: 8 Gy/4 fr) came to 0.905; with A549-Dual [2] (irradiation: none) it was 0.525.

As to `CC(=O)OC1Cc2ccccc2N(C(N)=O)c2ccccc21` (configuration not stated) [Eslicarbazepine Acetate], the NF-kB reporter was determined as 0.774 in the assay on A549-Dual [1] (irradiation: 8 Gy/4 fr) and 1.08 in the assay on A549-Dual [1] (irradiation: none). Besides, the ISRE reporter with A549-Dual [2] (irradiation: 8 Gy/4 fr) amounted to 0.745; in the assay with A549-Dual [2] (irradiation: none), 0.779.

Take `O=C1OC(c2ccc(O)cc2)(c2ccc(O)cc2)c2ccccc21` [Phenolphthalein]: the figures for the NF-kB reporter in the assay with A549-Dual [1] (irradiation: 8 Gy/4 fr) and in the assay on A549-Dual [1] (irradiation: none) were 0.618 and 0.545, respectively. Further, the values for the ISRE reporter in the assay on A549-Dual [2] (irradiation: 8 Gy/4 fr) and in the assay with A549-Dual [2] (irradiation: none) were 0.664 and 0.459, respectively.
